Reference: article PMC12529666
The list shows a part of the results, in another mix than the full data. At the low end of the ranking the order means little. Some of the results follow.

Legend:
Assay in all cases: RNA Bind-n-Seq (nitrocellulose filter binding and sequencing)
Details in all cases: constant regions annealed to DNA blockers; guide miR-122 5' phosphate; 30 mM Tris pH 8.0, 100 mM potassium acetate, 2 mM magnesium acetate, 0.5 mM TCEP, 0.005% NP-40, 0.01 mg/ml yeast tRNA; 3 nM AGO2-miR-122, 100 nM RNA library …; high values mean tight binding
[1] = biological target: AGO2 WT (phosphosite mutant background) S387D + S824A + S828D + S831D + S834A (UniProt Q9UKV8)
[2] = biological target: AGO2 F182del S387D + S824A + S828D + S831D + S834A + del182-182 (UniProt Q9UKV8)
[3] = biological target: AGO2 A367P A367P + S387D + S824A + S828D + S831D + S834A (UniProt Q9UKV8)

| Sequence | binding signal (fold enrichment over input) [1] | binding signal (fold enrichment over input) [2] | binding signal (fold enrichment over input) [3] |
| --- | --- | --- | --- |
| GAGUUCUACAGUCCGACGAUCCCAACGCACCCCGCACCUGGAAUUCUCGGGUGCCAA / UGGAGUGUGACAAUGGUGUUUG / GATCGTCGGACTGTAGAACTC / TTGGCACCCGAGAATTCCA | 0.129 | 0.203 | – |
| GAGUUCUACAGUCCGACGAUCCCAACGUAUUCUGCACCUGGAAUUCUCGGGUGCCAA / UGGAGUGUGACAAUGGUGUUUG / GATCGTCGGACTGTAGAACTC / TTGGCACCCGAGAATTCCA | 0.0928 | 0.0494 | – |
| GAGUUCUACAGUCCGACGAUCCCAACGCGCUCCGCACCUGGAAUUCUCGGGUGCCAA / UGGAGUGUGACAAUGGUGUUUG / GATCGTCGGACTGTAGAACTC / TTGGCACCCGAGAATTCCA | 1.39 | 7.66 | – |
| GAGUUCUACAGUCCGACGAUCCCAACGCGCUUUACACCUGGAAUUCUCGGGUGCCAA / UGGAGUGUGACAAUGGUGUUUG / GATCGTCGGACTGTAGAACTC / TTGGCACCCGAGAATTCCA | 0.117 | 0.0647 | – |
| GAGUUCUACAGUCCGACGAUCCCAACGUGCUUCGCACCUGGAAUUCUCGGGUGCCAA / UGGAGUGUGACAAUGGUGUUUG / GATCGTCGGACTGTAGAACTC / TTGGCACCCGAGAATTCCA | 0.127 | 0.066 | – |
| GAGUUCUACAGUCCGACGAUCCCAACAUGUCCCGCACCUGGAAUUCUCGGGUGCCAA / UGGAGUGUGACAAUGGUGUUUG / GATCGTCGGACTGTAGAACTC / TTGGCACCCGAGAATTCCA | 0.0871 | 0.0432 | – |
| GAGUUCUACAGUCCGACGAUCCCAACGCAUCCCGCACCUGGAAUUCUCGGGUGCCAA / UGGAGUGUGACAAUGGUGUUUG / GATCGTCGGACTGTAGAACTC / TTGGCACCCGAGAATTCCA | 0.094 | 0.0465 | – |
| GAGUUCUACAGUCCGACGAUCCCAACAUGCCCUGCACCUGGAAUUCUCGGGUGCCAA / UGGAGUGUGACAAUGGUGUUUG / GATCGTCGGACTGTAGAACTC / TTGGCACCCGAGAATTCCA | 0.0881 | 0.0408 | – |
| GAGUUCUACAGUCCGACGAUCCCAACAUGCCCCGCACCUGGAAUUCUCGGGUGCCAA / UGGAGUGUGACAAUGGUGUUUG / GATCGTCGGACTGTAGAACTC / TTGGCACCCGAGAATTCCA | 0.0965 | 0.0428 | 0.134 |
| GAGUUCUACAGUCCGACGAUCCCAACAUAUCCCGCACCUGGAAUUCUCGGGUGCCAA / UGGAGUGUGACAAUGGUGUUUG / GATCGTCGGACTGTAGAACTC / TTGGCACCCGAGAATTCCA | 0.0832 | 0.0433 | 0.11 |
| GAGUUCUACAGUCCGACGAUCCCAACAUGCUUUACACCUGGAAUUCUCGGGUGCCAA / UGGAGUGUGACAAUGGUGUUUG / GATCGTCGGACTGTAGAACTC / TTGGCACCCGAGAATTCCA | 0.109 | 0.0729 | – |
| GAGUUCUACAGUCCGACGAUCCCAACGUGUUUUGCACCUGGAAUUCUCGGGUGCCAA / UGGAGUGUGACAAUGGUGUUUG / GATCGTCGGACTGTAGAACTC / TTGGCACCCGAGAATTCCA | 0.0887 | 0.0312 | – |
| GAGUUCUACAGUCCGACGAUCCCAACGUGUCUUGCACCUGGAAUUCUCGGGUGCCAA / UGGAGUGUGACAAUGGUGUUUG / GATCGTCGGACTGTAGAACTC / TTGGCACCCGAGAATTCCA | 0.0861 | 0.0322 | – |
| GAGUUCUACAGUCCGACGAUCCCAACAUGUCCUACACCUGGAAUUCUCGGGUGCCAA / UGGAGUGUGACAAUGGUGUUUG / GATCGTCGGACTGTAGAACTC / TTGGCACCCGAGAATTCCA | 0.117 | 0.262 | – |
| GAGUUCUACAGUCCGACGAUCCCAACGUAUCUCGCACCUGGAAUUCUCGGGUGCCAA / UGGAGUGUGACAAUGGUGUUUG / GATCGTCGGACTGTAGAACTC / TTGGCACCCGAGAATTCCA | 0.0879 | 0.0455 | – |
| GAGUUCUACAGUCCGACGAUCCCAACAUGUCUCGCACCUGGAAUUCUCGGGUGCCAA / UGGAGUGUGACAAUGGUGUUUG / GATCGTCGGACTGTAGAACTC / TTGGCACCCGAGAATTCCA | 0.0783 | 0.0523 | 0.12 |
| GAGUUCUACAGUCCGACGAUCCCAACGUAUUCCGCACCUGGAAUUCUCGGGUGCCAA / UGGAGUGUGACAAUGGUGUUUG / GATCGTCGGACTGTAGAACTC / TTGGCACCCGAGAATTCCA | 0.11 | 0.0846 | – |
| GAGUUCUACAGUCCGACGAUCCCAACACGCCCCGCACCUGGAAUUCUCGGGUGCCAA / UGGAGUGUGACAAUGGUGUUUG / GATCGTCGGACTGTAGAACTC / TTGGCACCCGAGAATTCCA | 0.106 | 0.0737 | – |
| GAGUUCUACAGUCCGACGAUCCCAACGUACUCCGCACCUGGAAUUCUCGGGUGCCAA / UGGAGUGUGACAAUGGUGUUUG / GATCGTCGGACTGTAGAACTC / TTGGCACCCGAGAATTCCA | 0.327 | 2.42 | – |

| Sequence | binding signal (fold enrichment over input) [1] | binding signal (fold enrichment over input) [2] | binding signal (fold enrichment over input) [3] |
| --- | --- | --- | --- |
| GAGUUCUACAGUCCGACGAUCCCAACAUAUCCUGCACCUGGAAUUCUCGGGUGCCAA / UGGAGUGUGACAAUGGUGUUUG / GATCGTCGGACTGTAGAACTC / TTGGCACCCGAGAATTCCA | 0.0825 | 0.0514 | 0.12 |
| GAGUUCUACAGUCCGACGAUCCCAACAUGCUCUGCACCUGGAAUUCUCGGGUGCCAA / UGGAGUGUGACAAUGGUGUUUG / GATCGTCGGACTGTAGAACTC / TTGGCACCCGAGAATTCCA | 0.0998 | 0.0578 | – |
| GAGUUCUACAGUCCGACGAUCCCAACACGUUUCACACCUGGAAUUCUCGGGUGCCAA / UGGAGUGUGACAAUGGUGUUUG / GATCGTCGGACTGTAGAACTC / TTGGCACCCGAGAATTCCA | 0.146 | 1.44 | – |
| GAGUUCUACAGUCCGACGAUCCCAACGCGCCCCACACCUGGAAUUCUCGGGUGCCAA / UGGAGUGUGACAAUGGUGUUUG / GATCGTCGGACTGTAGAACTC / TTGGCACCCGAGAATTCCA | 0.115 | 0.0962 | – |
| GAGUUCUACAGUCCGACGAUCCCAACGCGCCCCGCACCUGGAAUUCUCGGGUGCCAA / UGGAGUGUGACAAUGGUGUUUG / GATCGTCGGACTGTAGAACTC / TTGGCACCCGAGAATTCCA | 0.12 | 0.0509 | – |
| GAGUUCUACAGUCCGACGAUCCCAACGCGUUCUGCACCUGGAAUUCUCGGGUGCCAA / UGGAGUGUGACAAUGGUGUUUG / GATCGTCGGACTGTAGAACTC / TTGGCACCCGAGAATTCCA | 0.0976 | 0.0373 | – |
| GAGUUCUACAGUCCGACGAUCCCAACGUGUCUCGCACCUGGAAUUCUCGGGUGCCAA / UGGAGUGUGACAAUGGUGUUUG / GATCGTCGGACTGTAGAACTC / TTGGCACCCGAGAATTCCA | 0.0861 | 0.0405 | – |
| GAGUUCUACAGUCCGACGAUCCCAACAUACUUCGCACCUGGAAUUCUCGGGUGCCAA / UGGAGUGUGACAAUGGUGUUUG / GATCGTCGGACTGTAGAACTC / TTGGCACCCGAGAATTCCA | 0.0924 | 0.0566 | – |
| GAGUUCUACAGUCCGACGAUCCCAACAUGUUCCGCACCUGGAAUUCUCGGGUGCCAA / UGGAGUGUGACAAUGGUGUUUG / GATCGTCGGACTGTAGAACTC / TTGGCACCCGAGAATTCCA | 0.0928 | 0.0467 | – |
| GAGUUCUACAGUCCGACGAUCCCAACGCACCUUGCACCUGGAAUUCUCGGGUGCCAA / UGGAGUGUGACAAUGGUGUUUG / GATCGTCGGACTGTAGAACTC / TTGGCACCCGAGAATTCCA | 0.0871 | 0.0817 | – |
| GAGUUCUACAGUCCGACGAUCCCAACACACUUCGCACCUGGAAUUCUCGGGUGCCAA / UGGAGUGUGACAAUGGUGUUUG / GATCGTCGGACTGTAGAACTC / TTGGCACCCGAGAATTCCA | 0.11 | 0.152 | – |
| GAGUUCUACAGUCCGACGAUCCCAACGUACUUUGCACCUGGAAUUCUCGGGUGCCAA / UGGAGUGUGACAAUGGUGUUUG / GATCGTCGGACTGTAGAACTC / TTGGCACCCGAGAATTCCA | 0.0877 | 0.0379 | – |
| GAGUUCUACAGUCCGACGAUCCCAACGCGCCUUGCACCUGGAAUUCUCGGGUGCCAA / UGGAGUGUGACAAUGGUGUUUG / GATCGTCGGACTGTAGAACTC / TTGGCACCCGAGAATTCCA | 0.101 | 0.0436 | – |
| GAGUUCUACAGUCCGACGAUCCCAACGUGCUUCACACCUGGAAUUCUCGGGUGCCAA / UGGAGUGUGACAAUGGUGUUUG / GATCGTCGGACTGTAGAACTC / TTGGCACCCGAGAATTCCA | 0.117 | 0.235 | – |
| GAGUUCUACAGUCCGACGAUCCCAACACGUCCCGCACCUGGAAUUCUCGGGUGCCAA / UGGAGUGUGACAAUGGUGUUUG / GATCGTCGGACTGTAGAACTC / TTGGCACCCGAGAATTCCA | 0.0874 | 0.0758 | – |
| GAGUUCUACAGUCCGACGAUCCCAACGUGCUUUACACCUGGAAUUCUCGGGUGCCAA / UGGAGUGUGACAAUGGUGUUUG / GATCGTCGGACTGTAGAACTC / TTGGCACCCGAGAATTCCA | 0.105 | 0.0604 | – |
| GAGUUCUACAGUCCGACGAUCCCAACACGCCUUGCACCUGGAAUUCUCGGGUGCCAA / UGGAGUGUGACAAUGGUGUUUG / GATCGTCGGACTGTAGAACTC / TTGGCACCCGAGAATTCCA | 0.103 | 0.0832 | – |
| GAGUUCUACAGUCCGACGAUCCCAACAUAUCUCACACCUGGAAUUCUCGGGUGCCAA / UGGAGUGUGACAAUGGUGUUUG / GATCGTCGGACTGTAGAACTC / TTGGCACCCGAGAATTCCA | 0.165 | 1.42 | – |
| GAGUUCUACAGUCCGACGAUCCCAACACAUUUCGCACCUGGAAUUCUCGGGUGCCAA / UGGAGUGUGACAAUGGUGUUUG / GATCGTCGGACTGTAGAACTC / TTGGCACCCGAGAATTCCA | 0.0907 | 0.116 | – |
